In PMC12040169 (PLOS Biology, 2025):
The other results are listed elsewhere or left out.

Test system: T1, C. trachomatis L2/434/Bu expressing GFP (CTL2-GFP)
T1 construct: L2/434/Bu GFP intracellular growth in HeLa cells
Design: species or system HeLa; C. trachomatis total inclusion area by high-content imaging, normalised to DMSO
Details: total inclusion area; 28.5 h, 10 µM; inhibitor
Summary of the method: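 Imaging read-out: GFP inclusions and Hoechst nuclei captured by high-content imaging after fixation. Inclusion area/number = chlamydial growth; nuclei count = host cell viability. MIC calculated per earlier method.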

SMILES | % of control remaining
Cc1ccc(Nc2nc(N)nc(-c3cc4ccccc4o3)n2)cc1 [CBK288222] | 60.1459
O=C(NCCN1CCCCC1)C1CC(=O)N(CCc2ccccc2)C1 (stereo not shown) [CBK305986] | 31.8036
O=C(COc1ccc(F)cc1F)NNC(=S)NC1CCCCC1 [CBK266859] | 104.055
O=C(O)CCC(=O)N1N=C2C(=Cc3cccc([N+](=O)[O-])c3)CCCC2C1c1cccc([N+](=O)[O-])c1 (stereo not shown) [CBK296071] | 111.457
CC(=O)NCCSc1ncccc1C(F)(F)F [CBK105296] | 93.0089
CCCCOc1ccc(C(=O)N/C(=C/c2ccco2)C(=O)Nc2cccc(C(=O)O)c2)cc1 [CBK300491] | 76.8319
COc1cc(-c2cn3ccnc3c(N[C@@H]3CCN(Cc4ccccc4)C3)n2)cc(OC)c1OC [CBK037385] | 104.451
N#Cc1ccccc1-c1ccc(CSc2cccs2)cc1 [CBK002638] | 80.902
COc1cccc(N2CC(C(=O)Nc3cccc(C(=O)O)c3)CC2=O)c1 (stereo not shown) [CBK286612] | 77.5668
c1nc(OCCN2CCOCC2)cc(N2CCCN(CCN3CCOCC3)CC2)n1 [CBK083647] | 90.0672
COc1c(C)cc(-c2nc(C)nc(C)c2C)cc1C [CBK307506] | 67.2704
Nc1nnc(SCc2ccc(Br)cc2)s1 [CBK026356] | 59.4973
O=C(Nc1ncc(Cc2ccc(F)cc2)s1)c1ccc(-c2ccc(F)cc2)o1 [CBK300522] | 59.005
Cc1ccn(CCNC(=O)c2ccc3c(C)c(C)[nH]c3c2)n1 [CBK282519] | 101.796
CN(CCc1ccccn1)Cc1cc(Br)cs1 [CBK021314] | 97.5298
Cc1sc2nc(SCC(=O)Nc3ccc(S(N)(=O)=O)cc3)n(-c3ccccc3)c(=O)c2c1C [CBK266600] | 104.549
COc1cc(C)c(NC(=O)C(=S)NCc2ccco2)cc1C [CBK268582] | 108.84
FCCOc1cncc(Cl)n1 [CBK113553] | 103.69
CCOc1ccccc1C(=O)N1CCCCC1c1ncc(C(=O)Nc2ccccc2)c(C)n1 (stereo not shown) [CBK285840] | 73.034
CCCCNC(=O)CCCN(CC)CCC1=CC2(CCCC2)c2ccccc21 [CBK013232] | 78.1059
C[C@H](NC(=O)N1CCC2(CC1)NCCc1c2[nH]c2ccc(Cl)cc12)c1ccccc1 [CBK047046] | 77.6649
O=C(NCc1csc(-c2ccccc2)n1)c1ccccc1OC(F)F [CBK092332] | 117.545
